# Test results reported in PMC6212790.
# The list shows a part of the results. At the low end of the ranking the order means little.
# Molecular target: T1, GST-Rok-C97-191 (UniProt O34857)
# T1 sequence: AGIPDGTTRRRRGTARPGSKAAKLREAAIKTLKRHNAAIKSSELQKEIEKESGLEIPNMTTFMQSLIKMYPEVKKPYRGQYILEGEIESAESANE
# Test: protein binding microarray;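 note: rank score from −0.5 (least bound) to 0.5 (best bound)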
# Settings: Rok is a gene silencer of Bacillus subtilis; high values mean tight binding; most listed sequences are background and not binding sites; double strand, one strand shown
row,Sequence,binding signal
1,TAAACGAA,-0.0721 E-score
2,AAGAGTGC,0.029 E-score
3,ACTATCAC,0.231 E-score
4,CTCCCTGA,-0.284 E-score
5,AGGTGCTA,0.0183 E-score
6,TCTAATCA,-0.00413 E-score
7,CTCCGACC,-0.281 E-score
8,CAGTACCG,-0.081 E-score
9,CTTTCTAA,0.1 E-score
10,AGTGGCTA,-0.139 E-score
11,CAAGCGGC,0.0233 E-score
12,AACCTTCC,-0.00775 E-score
13,AATCTTCC,0.157 E-score
14,GCGCACCA,-0.0434 E-score
15,CGCCATCA,-0.123 E-score
16,GCCTGTGA,-0.0709 E-score
17,TCGGAGAA,0.199 E-score
18,TCACCTCA,-0.184 E-score
19,AATCACAT,0.218 E-score
20,CAAAGCCG,-0.208 E-score
21,GTGGCAAA,0.0701 E-score
22,CAGAAGAC,-0.0817 E-score

row,Sequence,binding signal
1,AAGGGCTC,-0.148 E-score
2,CATATGCG,0.0731 E-score
3,CGGGGCGC,-0.159 E-score
4,GATACAGC,-0.0567 E-score
5,ACCAACAA,-0.0896 E-score
6,TCGAGGCA,0.00484 E-score
7,ACAGTTGC,-0.0875 E-score
8,TAGCTCAA,0.124 E-score
9,AGCTAAAG,-0.0914 E-score
10,GATAGATA,0.347 E-score
11,CGTCGATA,0.0763 E-score
12,CTGGTTTA,0.0421 E-score
13,GGGCTCCA,-0.125 E-score
14,ATGTTCCA,-0.0592 E-score
15,CTATGAAG,0.0148 E-score
16,CTGCGCTA,-0.0572 E-score
17,GGTACGTA,0.226 E-score
18,CTGACCAA,-0.0709 E-score
19,CGTAGAGC,-0.00238 E-score
20,AGTTTGCG,0.156 E-score
21,AGTTCACA,0.14 E-score
22,AACAATCC,0.206 E-score

row,Sequence,binding signal
1,CGCGGTGC,-0.182 E-score
2,ACAGGTCT,-0.135 E-score
3,ATATCACA,0.142 E-score
4,AGTTTGAG,0.014 E-score
5,AAATCGGA,-0.0443 E-score
6,GAGAAATA,0.345 E-score
7,AAAAACGA,-0.00048 E-score
8,GAGTTGGC,-0.11 E-score
9,CCGAGTTA,0.272 E-score
10,CAAAAGTA,0.233 E-score
11,AATGCTTC,-0.0613 E-score
12,CCCATCAC,-0.0947 E-score
13,ACTCACAA,-0.0122 E-score
14,CCGGCCGC,-0.167 E-score
15,CCTTCCTC,-0.248 E-score
16,GGTGATCA,-0.248 E-score
17,AGGTACTC,-0.011 E-score
18,AAGGATCA,-0.0571 E-score
19,AATGACCT,-0.0442 E-score
20,ACGTCGAT,0.108 E-score
21,AGTGTAGA,0.243 E-score
22,ACGCTAAC,-0.136 E-score

row,Sequence,binding signal
1,AAAATTAC,0.327 E-score
2,AAGTTTCC,0.148 E-score
3,CATTAGCG,0.196 E-score
4,ATCCCTCG,-0.11 E-score
5,GCGTATCA,0.0707 E-score
6,GACAAGGC,-0.188 E-score
7,GAATTGGA,0.082 E-score
8,GCGCATCC,-0.307 E-score
9,ATATCAGG,0.0706 E-score
10,CATGCTGG,-0.158 E-score
11,GTCGGGCA,-0.133 E-score
12,ATTAATTA,0.391 E-score
13,CGACGTTA,0.108 E-score
14,CCATTTCC,-0.102 E-score
15,CACCTAGC,-0.169 E-score
16,AAAGGGAG,-0.241 E-score
17,ACCCTACC,-0.0495 E-score
18,AACTATGG,0.133 E-score
19,ACTTACTA,0.301 E-score
20,CGCGTGAC,-0.14 E-score
